The other results are listed elsewhere or left out.

Cytotoxicity call and growth inhibition call data for 27 compounds are collected here from the antibiotic and cytotoxicity screens of Wong et al. (2023).

One assay concerns HSkMC. In words: cytotoxicity call (relative viability < 0.9). As to conditions: 10 µM.
For a further assay, the system named is HepG2. In words: cytotoxicity call (relative viability < 0.9). As to conditions: 10 µM.
In another assay the test system is S. aureus RN4220. In words: growth inhibition call (relative growth <= 0.2). As to conditions: 50 µM.

Take `COc1ccc([Si](C)(C)[C@H]2[C@H](CCn3cc([C@H](O)c4ccccc4)nn3)O[C@@]3(C(=O)N(Cc4ccc(N5CCC5=O)cc4)c4ccccc43)[C@@H]2C)cc1`: the cytotoxicity call in the assay with HSkMC and in the assay on HepG2 was “inactive” in each case. The growth inhibition call in the assay with S. aureus RN4220 was “inactive”.
As to `COc1ccc(S(=O)(=O)Nc2ccc3c(c2)C(=O)N([C@@H](C)CO)C[C@@H](C)[C@H](CN(C)S(=O)(=O)c2ccc(F)cc2)O3)cc1`, the cytotoxicity call with HSkMC and in the assay with HepG2 was “inactive” throughout. In the assay on S. aureus RN4220, the growth inhibition call was “inactive”.
Regarding `Cc1ccc(S(=O)(=O)Nc2ccc3c(c2)C(=O)N([C@H](C)CO)C[C@@H](C)[C@@H](CN(C)Cc2ccc(C(F)(F)F)cc2)OCCCC[C@H](C)O3)cc1`, the cytotoxicity call in the assay with HSkMC is “inactive”. Moreover, the cytotoxicity call in the assay on HepG2 is “active”. Moreover, the growth inhibition call with S. aureus RN4220 was “inactive”.
Regarding `CC(C)NC(=O)Nc1ccc2c(c1)CC(=O)N([C@H](C)CO)C[C@H](C)[C@@H](CN(C)Cc1ccc3c(c1)OCO3)O2`, the cytotoxicity call in the assay on HSkMC and in the assay on HepG2 was “inactive” in each case. Besides, in the assay with S. aureus RN4220, the growth inhibition call was “inactive”.
For `O=C(CN1CCOCC1)NCC[C@H]1CC[C@H](NC(=O)Nc2ccccc2)[C@H](CO)O1`, the cytotoxicity call in the assay on HSkMC and in the assay on HepG2 was “inactive” throughout. The growth inhibition call in the assay with S. aureus RN4220 is “inactive”.
In the case of `CCS(=O)(=O)N1C[C@]2(CN(Cc3ccc4c(c3)OCO4)[C@@H](CO)c3c2c2ccc(cc2n3C)OC)C1`, the cytotoxicity call in the assay with HSkMC and with HepG2 was “inactive” throughout. In addition, in the assay on S. aureus RN4220, the growth inhibition call was “inactive”.
`COCCOC(=O)N1C(=O)[C@@]2(c3cc(C#CCCO)ccc31)[C@H](c1ccccc1OCCO)N1[C@H](c3ccccc3)[C@H](c3ccccc3)OC(=O)[C@H]1[C@@H]2C(=O)NC[C@H](O)c1ccccc1`: the cytotoxicity call in the assay with HSkMC and in the assay with HepG2 was “inactive” in each case. The growth inhibition call with S. aureus RN4220 is “inactive”.
As for `C[C@H](CO)N1C[C@H](C)[C@H](CN(C)S(=O)(=O)c2ccc(F)cc2)Oc2ccc(NC(=O)C3CC3)cc2CC1=O`, the cytotoxicity call in the assay on HSkMC and with HepG2 was “inactive” each time. The growth inhibition call with S. aureus RN4220 was “inactive”.
`C[C@H]1CN([C@@H](C)CO)C(=O)c2cc(NC(=O)Cn3cnnn3)ccc2O[C@@H]1CN(C)C(=O)Nc1ccc(C(F)(F)F)cc1`: the cytotoxicity call with HSkMC and in the assay with HepG2 was “inactive” in each case. The growth inhibition call in the assay on S. aureus RN4220 was “inactive”.
As for `C[C@@H]1CN([C@@H](C)CO)C(=O)c2cc(C#Cc3ccccc3F)cnc2O[C@H]1CN(C)C(=O)C1CCOCC1`, the cytotoxicity call with HSkMC and in the assay on HepG2 was “inactive” in each case. The growth inhibition call in the assay on S. aureus RN4220 was “inactive”.
On to `CC(C)NC(=O)Nc1ccc2c(c1)CC(=O)N([C@@H](C)CO)C[C@@H](C)[C@@H](CN(C)Cc1ccc(C(=O)O)cc1)O2`, for which the cytotoxicity call in the assay on HSkMC and in the assay with HepG2 was “inactive” throughout. The growth inhibition call in the assay with S. aureus RN4220 was “inactive”.
As for `C[C@H]1CN([C@@H](C)CO)S(=O)(=O)c2ccc(Br)cc2O[C@H]1CN(C)C(=O)NC1CCCCC1`, the cytotoxicity call with HSkMC and in the assay with HepG2 was “inactive” throughout. Further, the growth inhibition call with S. aureus RN4220 is “inactive”.
In the case of `COc1ccccc1S(=O)(=O)N(C)C[C@H]1Oc2cc(Br)ccc2S(=O)(=O)N([C@H](C)CO)C[C@H]1C`, the cytotoxicity call in the assay with HSkMC and in the assay with HepG2 was “inactive” each time. The growth inhibition call in the assay on S. aureus RN4220 is “inactive”.
In the case of `C[C@@H]1CN([C@@H](C)CO)C(=O)CCCn2nncc2CO[C@H]1CN(C)Cc1cccc2c1OCCCO2`, the cytotoxicity call in the assay on HSkMC and in the assay on HepG2 was “inactive” throughout. Also, the growth inhibition call in the assay on S. aureus RN4220 is “inactive”.
For `COc1ccc2c3c(n(c2c1)C)[C@@H](CO)N(C[C@]13CCN(CC1)C(=O)C1CC1)C(=O)CN1CCOCC1`, the cytotoxicity call in the assay on HSkMC and in the assay on HepG2 was “inactive” each time. Moreover, the growth inhibition call with S. aureus RN4220 is “inactive”.
Turning to `C[C@H](CO)N1C[C@H](C)[C@@H](CN(C)S(=O)(=O)c2cccs2)Oc2ccc(NS(=O)(=O)c3ccccc3)cc2C1=O`, the cytotoxicity call in the assay on HSkMC and in the assay on HepG2 was “inactive” each time. Further, the growth inhibition call with S. aureus RN4220 is “inactive”.
As for `COc1ccc(S(=O)(=O)Nc2ccc3c(c2)C(=O)N([C@@H](C)CO)C[C@@H](C)[C@H](CN(C)Cc2ccc(Cl)c(Cl)c2)O3)cc1`, in the assay with HSkMC, the cytotoxicity call was “inactive”. Also, the cytotoxicity call in the assay with HepG2 is “active”. For the same compound, the growth inhibition call in the assay on S. aureus RN4220 was “inactive”.
As to `O=C(O)CN(CCN(CC(=O)O)CC(=O)O)CCN(CC(=O)O)CC(=O)O`, the cytotoxicity call in the assay with HSkMC and in the assay on HepG2 was “inactive” in each case. Also, in the assay with S. aureus RN4220, the growth inhibition call is “inactive”.
With `C[C@@H]1CN([C@H](C)CO)C(=O)c2cc(NC(=O)Nc3ccc(F)cc3)ccc2O[C@@H](C)CCCCO[C@@H]1CN(C)C(=O)C1CCCCC1`, the cytotoxicity call in the assay on HSkMC and in the assay with HepG2 was “inactive” each time. Moreover, the growth inhibition call with S. aureus RN4220 is “inactive”.
Regarding `C[C@@H]1CCCCO[C@@H](CN(C)C(=O)Nc2cccc3ccccc23)[C@H](C)CN([C@@H](C)CO)C(=O)c2cc(NS(=O)(=O)c3ccc(F)cc3)ccc2O1`, the cytotoxicity call with HSkMC and in the assay with HepG2 was “inactive” in each case. Moreover, in the assay with S. aureus RN4220, the growth inhibition call is “inactive”.
Take `C[C@@H]1CN([C@@H](C)CO)C(=O)c2cc(NC(=O)C3CCCCC3)ccc2O[C@@H](C)CCCCO[C@H]1CN(C)Cc1ccncc1`: the cytotoxicity call with HSkMC and with HepG2 was “inactive” in each case. Besides, the growth inhibition call with S. aureus RN4220 is “inactive”.
In the case of `CN1C(C)(C)CCCC1(C)C.O=C(O)C(O)C(O)C(=O)O`, the cytotoxicity call in the assay with HSkMC and in the assay with HepG2 was “inactive” each time. The growth inhibition call in the assay on S. aureus RN4220 was “inactive”.
Consider `CC(C)NC(=O)Nc1ccc2c(c1)C(=O)N([C@@H](C)CO)C[C@@H](C)[C@@H](CN(C)CC1CCCCC1)OCCCC[C@H](C)O2`, for which the cytotoxicity call with HSkMC and with HepG2 was “inactive” in each case. In addition, the growth inhibition call with S. aureus RN4220 is “inactive”.
`C[C@H](CO)N1C[C@H](C)[C@H](CN(C)C(=O)Nc2ccc(C(F)(F)F)cc2)Oc2ccc(NC(=O)Nc3cccc4ccccc34)cc2CC1=O`: the cytotoxicity call with HSkMC and in the assay with HepG2 was “inactive” throughout. Also, the growth inhibition call in the assay with S. aureus RN4220 is “inactive”.
`CN1C(=O)c2cc(NC(=O)c3cccs3)ccc2OC[C@@H]2O[C@H](CC(=O)NCCN3CCCCC3)CC[C@H]21`: the cytotoxicity call in the assay with HSkMC and in the assay with HepG2 was “inactive” throughout. In addition, the growth inhibition call with S. aureus RN4220 is “inactive”.
For the compound `C[C@@H]1CCCCO[C@H](CN(C)S(=O)(=O)c2ccc(Cl)cc2)[C@@H](C)CN([C@@H](C)CO)C(=O)c2cc(NC(=O)c3ccccc3)ccc2O1`, the cytotoxicity call in the assay on HSkMC (human skeletal muscle cells) and in the assay on HepG2 was “inactive” throughout. Moreover, the growth inhibition call in the assay on S. aureus RN4220 was “inactive”.
Turning to `C[C@H]1CN([C@@H](C)CO)C(=O)c2cc(NS(=O)(=O)c3cn(C)cn3)ccc2O[C@@H]1CN(C)Cc1ccncc1`, the cytotoxicity call with HSkMC and with HepG2 was “inactive” in each case. In addition, the growth inhibition call in the assay with S. aureus RN4220 is “inactive”.
